This passage reports cell count results from the supplement of paper PMC4604168 (melanoma cell lines).

Molecules are shown by their SMILES. The list shows a part of the results. Single values are uncertain, as repeats are few or missing.
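Also: cells treated in 1,536-well plates, then fixed and DAPI-stained, with nuclei counted from automated high-throughput microscope images.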

The test concerns WM115. As to the kind of experiment: cell count relative to DMSO control; melanoma cells; higher = more viable cells. The conditions noted are these: library dose: standard library concentration; 72 h.
Take `N#CC[C@H](C1CCCC1)n1cc(-c2ncnc3[nH]ccc23)cn1` [ruxolitinib] + O=C(O)c1ccc(-c2c[nH]c3ncc(-c4ccccc4)cc23)cc1C1CCCC1 [GSK650394] (first compound 5 µM, partner dose 0.8 µM): the cell count came out at 108%.
`CC[C@]1(O)C[C@H]2CN(CCc3c([nH]c4ccccc34)[C@@](C(=O)OC)(c3cc4c(cc3OC)N(C=O)[C@H]3[C@@](O)(C(=O)OC)[C@H](OC(C)=O)[C@]5(CC)C=CCN6CC[C@]43[C@@H]65)C2)C1` [vincristine] + OCCn1cc(-c2cnc3nnn(Cc4ccc5ncccc5c4)c3n2)cn1 [PF04217903] (first compound 0.0005 µM, partner dose 5 µM): the cell count was determined as 78.8%.
`Cc1cc(Nc2cc(N3CCN(C)CC3)nc(Sc3ccc(NC(=O)C4CC4)cc3)n2)n[nH]1` [Tozasertib] + CC1(C)NC(=O)N(c2ccc([N+](=O)[O-])c(C(F)(F)F)c2)C1=O [nilutamide] (first compound 0.03 µM, partner dose 5 µM) displayed a cell count of 61.9%.
In turn, `Cc1cc(Nc2cc(N3CCN(C)CC3)nc(Sc3ccc(NC(=O)C4CC4)cc3)n2)n[nH]1` [Tozasertib] + NC(=O)Nc1cc(-c2cccc(F)c2)sc1C(=O)N[C@H]1CCCNC1 [AZD7762] (first compound 0.03 µM, partner dose 0.1 µM) had a cell count of 39.2%.
Compound `Cc1cc(Nc2cc(N3CCN(C)CC3)nc(Sc3ccc(NC(=O)C4CC4)cc3)n2)n[nH]1` [Tozasertib] + CN(NC(=O)CC(=O)NN(C)C(=S)c1ccccc1)C(=S)c1ccccc1 [STA4783] (first compound 0.03 µM, partner dose 0.03 µM) came in with a cell count of 16.5%.
Take `Cc1cc(Nc2cc(N3CCN(C)CC3)nc(Sc3ccc(NC(=O)C4CC4)cc3)n2)n[nH]1` [Tozasertib] + C=CCn1c(=O)c2cnc(Nc3ccc(N4CCN(C)CC4)cc3)nc2n1-c1cccc(C(C)(C)O)n1 [MK1775] (first compound 0.03 µM, partner dose 0.1 µM): the cell count came to 47.4%.
Compound `Cc1cc(Nc2cc(N3CCN(C)CC3)nc(Sc3ccc(NC(=O)C4CC4)cc3)n2)n[nH]1` [Tozasertib] + Cc1ccc(NC(=O)c2cccc(N(C)C)c2)cc1NC(=O)c1ccc(O)cc1 [ZM336372] (first compound 0.03 µM, partner dose 10 µM) came in with a cell count of 53.3%.
`CC[C@]1(O)C[C@H]2CN(CCc3c([nH]c4ccccc34)[C@@](C(=O)OC)(c3cc4c(cc3OC)N(C=O)[C@H]3[C@@](O)(C(=O)OC)[C@H](OC(C)=O)[C@]5(CC)C=CCN6CC[C@]43[C@@H]65)C2)C1` [vincristine] + C[C@@H]1CCN(C(=O)CC#N)C[C@@H]1N(C)c1ncnc2[nH]ccc12 [CP690550] (first compound 0.0005 µM, partner dose 5 µM) showed a cell count of 46.8%.
As for `Cc1cc(Nc2cc(N3CCN(C)CC3)nc(Sc3ccc(NC(=O)C4CC4)cc3)n2)n[nH]1` [Tozasertib] + CC(C)(C)c1cnc(CSc2cnc(NC(=O)C3CCNCC3)s2)o1 [SNS-032] (first compound 0.03 µM, partner dose 0.05 µM), the figure is 50.6%; as for `CC[C@]1(O)C[C@H]2CN(CCc3c([nH]c4ccccc34)[C@@](C(=O)OC)(c3cc4c(cc3OC)N(C=O)[C@H]3[C@@](O)(C(=O)OC)[C@H](OC(C)=O)[C@]5(CC)C=CCN6CC[C@]43[C@@H]65)C2)C1` [vincristine] + C=CCn1c(=O)c2cnc(Nc3ccc(N4CCN(C)CC4)cc3)nc2n1-c1cccc(C(C)(C)O)n1 [MK1775] (first compound 0.0005 µM, partner dose 0.1 µM), 30.9%.
Consider `CC[C@]1(O)C[C@H]2CN(CCc3c([nH]c4ccccc34)[C@@](C(=O)OC)(c3cc4c(cc3OC)N(C=O)[C@H]3[C@@](O)(C(=O)OC)[C@H](OC(C)=O)[C@]5(CC)C=CCN6CC[C@]43[C@@H]65)C2)C1` [vincristine] + Cn1cncc1[C@@](N)(c1ccc(Cl)cc1)c1ccc2c(c1)c(-c1cccc(Cl)c1)cc(=O)n2C [tipifarnib] (first compound 0.0005 µM, partner dose 0.05 µM), for which the cell count came to 40.4%.
As for `N#CC[C@H](C1CCCC1)n1cc(-c2ncnc3[nH]ccc23)cn1` [ruxolitinib] + NCC(=O)Nc1ccc(-n2nc(C(F)(F)F)cc2-c2ccc3c(ccc4ccccc43)c2)cc1 [OSU03012] (first compound 5 µM, partner dose 5 µM), the figure is 63.6%; as for `N#CC[C@H](C1CCCC1)n1cc(-c2ncnc3[nH]ccc23)cn1` [ruxolitinib] + CC(C)(C)c1cnc(CSc2cnc(NC(=O)C3CCNCC3)s2)o1 [SNS-032] (first compound 5 µM, partner dose 0.05 µM), 58.5%; as for `CC[C@]1(O)C[C@H]2CN(CCc3c([nH]c4ccccc34)[C@@](C(=O)OC)(c3cc4c(cc3OC)N(C=O)[C@H]3[C@@](O)(C(=O)OC)[C@H](OC(C)=O)[C@]5(CC)C=CCN6CC[C@]43[C@@H]65)C2)C1` [vincristine] + Cc1cc(N2CCOCC2)cc2[nH]c(-c3c(NC[C@@H](O)c4cccc(Cl)c4)cc[nH]c3=O)nc12 [BMS536924] (first compound 0.0005 µM, partner dose 1 µM), 26.2%.
Turning to `CC[C@]1(O)C[C@H]2CN(CCc3c([nH]c4ccccc34)[C@@](C(=O)OC)(c3cc4c(cc3OC)N(C=O)[C@H]3[C@@](O)(C(=O)OC)[C@H](OC(C)=O)[C@]5(CC)C=CCN6CC[C@]43[C@@H]65)C2)C1` [vincristine] + CC(C)(C)c1cnc(CSc2cnc(NC(=O)C3CCNCC3)s2)o1 [SNS-032] (first compound 0.0005 µM, partner dose 0.05 µM), the cell count was found to be 52%.
`N#CC[C@H](C1CCCC1)n1cc(-c2ncnc3[nH]ccc23)cn1` [ruxolitinib] + NC(=O)Nc1cc(-c2cccc(F)c2)sc1C(=O)N[C@H]1CCCNC1 [AZD7762] (first compound 5 µM, partner dose 0.1 µM) had a cell count of 69.2%.
The compound `N#CC[C@H](C1CCCC1)n1cc(-c2ncnc3[nH]ccc23)cn1` [ruxolitinib] + O=C(Nc1cccc(Cl)c1)Nc1ncc(CCNc2ncnc3ccsc23)s1 [SNS314] (first compound 5 µM, partner dose 0.004 µM) registered a cell count of 40%.
On to `N#CC[C@H](C1CCCC1)n1cc(-c2ncnc3[nH]ccc23)cn1` [ruxolitinib] + CN(NC(=O)CC(=O)NN(C)C(=S)c1ccccc1)C(=S)c1ccccc1 [STA4783] (first compound 5 µM, partner dose 0.03 µM), for which the cell count is 24.2%.
`N#CC[C@H](C1CCCC1)n1cc(-c2ncnc3[nH]ccc23)cn1` [ruxolitinib] + O=C(CCCCCCC(=O)Nc1ccccc1)NO [vorinostat] (first compound 5 µM, partner dose 0.4 µM) gave a cell count of 83.5%.
Compound `Cc1cc(Nc2cc(N3CCN(C)CC3)nc(Sc3ccc(NC(=O)C4CC4)cc3)n2)n[nH]1` [Tozasertib] + OCCn1cc(-c2cnc3nnn(Cc4ccc5ncccc5c4)c3n2)cn1 [PF04217903] (first compound 0.03 µM, partner dose 5 µM) returned a cell count of 43.5%.
Take `N#CC[C@H](C1CCCC1)n1cc(-c2ncnc3[nH]ccc23)cn1` [ruxolitinib] + Cc1cc(N2CCOCC2)cc2[nH]c(-c3c(NC[C@@H](O)c4cccc(Cl)c4)cc[nH]c3=O)nc12 [BMS536924] (first compound 5 µM, partner dose 1 µM): the cell count was 93.4%.
In turn, `N#CC[C@H](C1CCCC1)n1cc(-c2ncnc3[nH]ccc23)cn1` [ruxolitinib] + C=CCn1c(=O)c2cnc(Nc3ccc(N4CCN(C)CC4)cc3)nc2n1-c1cccc(C(C)(C)O)n1 [MK1775] (first compound 5 µM, partner dose 0.1 µM) came in with a cell count of 65.1%.
As for `N#CC[C@H](C1CCCC1)n1cc(-c2ncnc3[nH]ccc23)cn1` [ruxolitinib] + C[C@@H]1CCN(C(=O)CC#N)C[C@@H]1N(C)c1ncnc2[nH]ccc12 [CP690550] (first compound 5 µM, partner dose 5 µM), the figure is 85.3%.
`CC[C@]1(O)C[C@H]2CN(CCc3c([nH]c4ccccc34)[C@@](C(=O)OC)(c3cc4c(cc3OC)N(C=O)[C@H]3[C@@](O)(C(=O)OC)[C@H](OC(C)=O)[C@]5(CC)C=CCN6CC[C@]43[C@@H]65)C2)C1` [vincristine] + CN(C)S(=O)(=O)c1ccc2c(c1)/C(=C/c1cc3c([nH]1)CCCC3)C(=O)N2 [SU6656] (first compound 0.0005 µM, partner dose 2 µM): the cell count is 28.7%.
For `Cc1cc(Nc2cc(N3CCN(C)CC3)nc(Sc3ccc(NC(=O)C4CC4)cc3)n2)n[nH]1` [Tozasertib] + Cc1cc(N2CCOCC2)cc2[nH]c(-c3c(NC[C@@H](O)c4cccc(Cl)c4)cc[nH]c3=O)nc12 [BMS536924] (first compound 0.03 µM, partner dose 1 µM) the value was 57.4%; for `N#CC[C@H](C1CCCC1)n1cc(-c2ncnc3[nH]ccc23)cn1` [ruxolitinib] + Cn1c(Nc2ccc(C(F)(F)F)cc2)nc2cc(Oc3ccnc(-c4ncc(C(F)(F)F)[nH]4)c3)ccc21 [CHIR265] (first compound 5 µM, partner dose 0.4 µM), 62.8%.
`CC[C@]1(O)C[C@H]2CN(CCc3c([nH]c4ccccc34)[C@@](C(=O)OC)(c3cc4c(cc3OC)N(C=O)[C@H]3[C@@](O)(C(=O)OC)[C@H](OC(C)=O)[C@]5(CC)C=CCN6CC[C@]43[C@@H]65)C2)C1` [vincristine] + Cc1ccc(NC(=O)c2cccc(N(C)C)c2)cc1NC(=O)c1ccc(O)cc1 [ZM336372] (first compound 0.0005 µM, partner dose 10 µM): the cell count came to 42.9%.
